Results from the supplement of paper PMC4604168 (melanoma cell lines).
This is one part of the list. Single values are uncertain, as repeats are few or missing.

Assays:
Assay in all cases: cell count relative to DMSO control; melanoma cells; higher = more viable cells
Conditions in all cases: library dose: standard library concentration; 72 h
SkMel28 = tested on: SkMel28
SkMel2 = tested on: SkMel2
SkMel30 = tested on: SkMel30
SkMel5 = tested on: SkMel5
UACC257 = tested on: UACC257
UACC62 = tested on: UACC62
WM115 = tested on: WM115
WM1716 = tested on: WM1716
WM3526 = tested on: WM3526
WM1745 = tested on: WM1745
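Further: cells treated in 1,536-well plates, then fixed and DAPI-stained, with nuclei counted from automated high-throughput microscope images.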

Row | SMILES | cell count (SkMel28) [%] | cell count (SkMel2) [%] | cell count (SkMel30) [%] | cell count (SkMel5) [%] | cell count (UACC257) [%] | cell count (UACC62) [%] | cell count (WM115) [%] | cell count (WM1716) [%] | cell count (WM3526) [%] | cell count (WM1745) [%]
1 | Cn1cc(C2=C(c3cn(C4CCN(Cc5ccccn5)CC4)c4ccccc34)C(=O)NC2=O)c2ccccc21 [Enzastaurin] + COc1ccc(COc2ccc(Cc3cnc(N)nc3N)cc2OC)cc1 [GW2580] (first compound 4 µM, partner dose 5 µM) | 78 | 80.9 | 105 | 72.4 | 82.4 | 77.8 | 118 | 68.1 | 91.1 | 
2 | Cn1cc(C2=C(c3cn(C4CCN(Cc5ccccn5)CC4)c4ccccc34)C(=O)NC2=O)c2ccccc21 [Enzastaurin] + COc1cc(N2CCC(N3CCN(C)CC3)CC2)ccc1Nc1ncc(Cl)c(Nc2ccccc2S(=O)(=O)C(C)C)n1 [NVP-TAE684] (first compound 4 µM, partner dose 0.4 µM) | 90.2 | 69.6 | 104 | 73.6 | 84.3 | 48.4 | 89.3 | 72.3 | 68.6 | 
3 | C[C@]12O[C@H](C[C@]1(O)CO)n1c3ccccc3c3c4c(c5c6ccccc6n2c5c31)CNC4=O [Lestaurtinib] + Cn1cc(/C=C2\C(=O)Nc3cccnc32)c2ccccc21 [GW441756] (first compound 0.02 µM, partner dose 2 µM) | 87.1 | 112 | 86.9 | 73.9 | 86.4 | 73.1 | 82.5 | 104 | 73.4 | 
4 | N.N.[Cl][Pt][Cl] [cisplatin] + COc1ccc(COc2ccc(Cc3cnc(N)nc3N)cc2OC)cc1 [GW2580] (first compound 8 µM, partner dose 5 µM) | 100 | 106 | 127 | 95.6 | 81.6 | 110 | 100 | 116 | 102 | 
5 | C[C@]12O[C@H](C[C@]1(O)CO)n1c3ccccc3c3c4c(c5c6ccccc6n2c5c31)CNC4=O [Lestaurtinib] + Oc1cc(-c2nc(-c3ccccc3)[nH]c2-c2ccncc2)ccc1Cl [L779450] (first compound 0.02 µM, partner dose 1 µM) | 34.2 | 12.9 | 73.1 | 47.8 | 90.3 | 49.1 | 51.5 | 73 | 38.9 | 
6 | Cn1cc(C2=C(c3cn(C4CCN(Cc5ccccn5)CC4)c4ccccc34)C(=O)NC2=O)c2ccccc21 [Enzastaurin] + O=S(=O)(c1ccccc1)N(CC(F)(F)F)c1ccc(C(O)(C(F)(F)F)C(F)(F)F)cc1 [T0901317] (first compound 4 µM, partner dose 7 µM) | 67.2 | 56.4 | 94.6 | 72.8 | 65.5 | 57.8 | 109 | 74.8 | 90 | 
7 | N.N.[Cl][Pt][Cl] [cisplatin] + O=c1cc(-c2cccc3c2Sc2ccccc2S3)oc(N2CCOCC2)c1 [KU55933] (first compound 8 µM, partner dose 5 µM) | 96.1 | 73.9 | 91 | 94 | 97.7 | 79.8 | 112 | 82.1 | 77.3 | 
8 | C[As](C)SC[C@H](NC(=O)CC[C@H](N)C(=O)O)C(=O)NCC(=O)O [Darinaparsin] + CCc1ccc(CCOc2ccc(CC3SC(=O)NC3=O)cc2)nc1 [pioglitazone] (first compound 2 µM, partner dose 10 µM) | 69 | 79.5 | 77.6 | 50.8 | 77.1 | 86.3 | 78.3 | 63.5 | 83.8 | 89.7
9 | Cn1cc(C2=C(c3cn(C4CCN(Cc5ccccn5)CC4)c4ccccc34)C(=O)NC2=O)c2ccccc21 [Enzastaurin] + CC(C)CCN1c2nc(Nc3cc(F)c(O)c(F)c3)ncc2N(C)C(=O)C1C [BID1870] (first compound 4 µM, partner dose 1 µM) | 78.3 | 55.6 | 90.5 | 63.6 | 78.7 | 63.6 | 104 | 11.7 | 64.5 | 
10 | N.N.[Cl][Pt][Cl] [cisplatin] + N#Cc1c(O)c2c(-c3ccc(-c4ccccc4O)cc3)csc2[nH]c1=O [A769662] (first compound 8 µM, partner dose 10 µM) | 116 | 105 | 89.5 | 93.6 | 72.5 | 99.5 | 95.5 | 92.7 | 86.7 | 
11 | C[C@]12O[C@H](C[C@]1(O)CO)n1c3ccccc3c3c4c(c5c6ccccc6n2c5c31)CNC4=O [Lestaurtinib] + CCN(CC)CCCCNc1ncc2cc(-c3cc(OC)cc(OC)c3)c(NC(=O)NC(C)(C)C)nc2n1 [PD173074] (first compound 0.02 µM, partner dose 0.5 µM) | 57.9 | 87.9 | 86.1 | 60.7 | 110 | 75.6 | 81.4 | 90.6 | 67.1 | 
12 | C[C@]12O[C@H](C[C@]1(O)CO)n1c3ccccc3c3c4c(c5c6ccccc6n2c5c31)CNC4=O [Lestaurtinib] + Cc1cc(SCc2sc(-c3ccc(C(F)(F)F)c(F)c3)nc2C)ccc1OCC(=O)O [GW0742] (first compound 0.02 µM, partner dose 10 µM) | 96.3 | 105 | 98.8 | 76 | 111 | 95.6 | 63.2 | 107 | 72.5 | 
13 | Cn1cc(C2=C(c3cn(C4CCN(Cc5ccccn5)CC4)c4ccccc34)C(=O)NC2=O)c2ccccc21 [Enzastaurin] + O=c1cc(-c2cccc3c2Sc2ccccc2S3)oc(N2CCOCC2)c1 [KU55933] (first compound 4 µM, partner dose 5 µM) | 64.7 | 65.8 | 107 | 84.1 | 90 | 62.6 | 113 | 68.3 | 76.9 | 
14 | C[C@]12O[C@H](C[C@]1(O)CO)n1c3ccccc3c3c4c(c5c6ccccc6n2c5c31)CNC4=O [Lestaurtinib] + O=C(Nc1ccccc1)c1cc([N+](=O)[O-])ccc1Cl [GW9662] (first compound 0.02 µM, partner dose 10 µM) | 31.8 | 73.9 | 68.5 | 46.5 | 73.8 | 70.8 | 43.2 | 92.1 | 56.9 | 
15 | N.N.[Cl][Pt][Cl] [cisplatin] + O=S(=O)(c1ccccc1)N(CC(F)(F)F)c1ccc(C(O)(C(F)(F)F)C(F)(F)F)cc1 [T0901317] (first compound 8 µM, partner dose 7 µM) | 67.6 | 89 | 97.3 | 83.2 | 81.2 | 73.1 | 108 | 104 | 87.2 | 
16 | Cn1cc(C2=C(c3cn(C4CCN(Cc5ccccn5)CC4)c4ccccc34)C(=O)NC2=O)c2ccccc21 [Enzastaurin] + COc1ccc2c(c1)CCC1C2CCC2(C)C(NCCCCCCN3C(=O)C=CC3=O)CCC12 [U73122] (first compound 4 µM, partner dose 2 µM) | 87.3 | 97.8 | 112 | 91.6 | 85.2 | 65.3 | 97 | 61 | 90.9 | 
17 | C[As](C)SC[C@H](NC(=O)CC[C@H](N)C(=O)O)C(=O)NCC(=O)O [Darinaparsin] + OCCn1cc(-c2cnc3nnn(Cc4ccc5ncccc5c4)c3n2)cn1 [PF04217903] (first compound 2 µM, partner dose 5 µM) | 101 | 85.2 | 83.9 | 74.1 | 82.3 | 74.7 | 61.1 | 61.5 | 77.5 | 92.8
18 | Cn1cc(C2=C(c3cn(C4CCN(Cc5ccccn5)CC4)c4ccccc34)C(=O)NC2=O)c2ccccc21 [Enzastaurin] + c1cc(-c2cnn3cc(-c4ccc(OCCN5CCCCC5)cc4)cnc23)ccn1 [Dorsomorphin] (first compound 4 µM, partner dose 2 µM) | 69.4 | 52.4 | 88.8 | 50.7 | 81.5 | 50.7 | 90.8 | 66.5 | 77.6 | 
19 | C[C@]12O[C@H](C[C@]1(O)CO)n1c3ccccc3c3c4c(c5c6ccccc6n2c5c31)CNC4=O [Lestaurtinib] + O=c1cc(-c2cccc3c2Sc2ccccc2S3)oc(N2CCOCC2)c1 [KU55933] (first compound 0.02 µM, partner dose 5 µM) | 65 | 85.1 | 86.3 | 55.4 | 87.1 | 79.3 | 65.3 | 80.9 | 54.2 | 
20 | Cn1cc(C2=C(c3cn(C4CCN(Cc5ccccn5)CC4)c4ccccc34)C(=O)NC2=O)c2ccccc21 [Enzastaurin] + CCCCCCCCCCCC1=C(O)C(=O)C=C(O)C1=O [Embelin] (first compound 4 µM, partner dose 6 µM) | 112 | 79.9 | 117 | 86.8 | 84.1 | 93.5 | 89.9 | 65.7 | 88.9 | 
21 | C[C@]12O[C@H](C[C@]1(O)CO)n1c3ccccc3c3c4c(c5c6ccccc6n2c5c31)CNC4=O [Lestaurtinib] + O=C1NC(=O)/C(=C/c2ccc(-c3ccc(F)cc3O)o2)S1 [AS252424] (first compound 0.02 µM, partner dose 5 µM) | 121 | 104 | 95 | 70.4 | 109 | 104 | 114 | 116 | 83.3 | 
